Out of some 39,000 compounds screened, about 220 (0.56%) showed activity. Some of the results follow.
These molecules were tested on Escherichia coli K-12 BW25113 (assay: relative growth (OD600 normalised to plate interquartile mean) (fraction); higher = less growth inhibition, active = 0.2 or less). Details: 50 µM; LB; incubation time: overnight (16-24 h).
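Note: static incubation at 37 °C against the wild-type strain, values averaged over two biological replicates.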

Structure (SMILES) | relative growth
COc1cc2c(cc1OC)-c1onc(-c3ccc(OCCO[Si](C(C)C)(C(C)C)C(C)C)cc3)c1CCCN(C[C@@H](C)O)CC2 | inactive: 0.89
C[C@@H]1CN([C@H](C)CO)S(=O)(=O)c2ccc(C#Cc3ccncc3)cc2O[C@H]1CN(C)C(=O)c1ccncc1 | inactive: 0.977
Cc1noc(C)c1S(=O)(=O)Nc1ccc2c(c1)C(=O)N([C@@H](C)CO)C[C@@H](C)[C@H](CN(C)C(=O)Nc1cccc3ccccc13)OCCCC[C@H](C)O2 | inactive: 1.03
Cn1cnc(CCNC(=O)C[C@@H]2CC[C@@H]3[C@H](COC[C@@H](O)CN3C(=O)Nc3ccc(Cl)cc3)O2)c1 | inactive: 0.993
COc1ccc(CN(C)C[C@H]2OCCCC[C@@H](C)Oc3ccc(NS(=O)(=O)c4ccc(C)cc4)cc3C(=O)N([C@@H](C)CO)C[C@H]2C)cc1 | inactive: 1.02
O=C(C[C@@H]1CC[C@H]2[C@@H](COC[C@H](O)CN2S(=O)(=O)c2ccccc2F)O1)NCc1ccccc1F | inactive: 1.02
C[C@@H]1CN([C@H](C)CO)C(=O)Cc2cc(NC(=O)NC3CCCCC3)ccc2O[C@H]1CN(C)C(=O)Nc1ccc(C(F)(F)F)cc1 | inactive: 1.03
Cc1ccc(S(=O)(=O)N(C)C[C@H]2Oc3ccc(NS(=O)(=O)c4ccc(F)cc4)cc3CC(=O)N([C@H](C)CO)C[C@H]2C)cc1 | inactive: 0.99
C[C@H]1CN([C@@H](C)CO)C(=O)Cc2cc(NC(=O)Cn3cnnn3)ccc2O[C@H]1CN(C)Cc1ccc(-c2ccccc2)cc1 | inactive: 0.961
COc1ccc(NC(=O)N(C)C[C@@H]2OCCCC[C@@H](C)Oc3ccc(NS(=O)(=O)c4ccccc4)cc3C(=O)N([C@H](C)CO)C[C@@H]2C)cc1 | inactive: 1.02
COc1ccccc1C(=O)Nc1ccc2c(c1)C(=O)N(C)[C@@H]1CC[C@H](CC(=O)NCCc3ccncc3)O[C@H]1CO2 | inactive: 0.995
Cc1noc(C)c1S(=O)(=O)Nc1ccc2c(c1)C(=O)N([C@H](C)CO)C[C@H](C)[C@@H](CN(C)Cc1ccc(Oc3ccccc3)cc1)O2 | inactive: 1.01
NNC(=O)COc1ccccc1 | inactive: 1.01
Cn1c(CN)nc2ccccc2c1=O | inactive: 1.01
CN1C(=O)c2cc(NC(=O)Nc3ccccc3F)ccc2OC[C@@H]2O[C@H](CC(=O)NCc3ccc(-c4ccccc4)cc3)CC[C@H]21 | inactive: 1.07
Cc1noc(C)c1S(=O)(=O)Nc1ccc2c(c1)CC(=O)N([C@H](C)CO)C[C@@H](C)[C@H](CN(C)S(=O)(=O)c1cn(C)cn1)O2 | inactive: 0.988

Reference: the supplement of paper PMC9446081
